Assay results taken from PubChem BioAssay AID686979 (National Center for Advancing Translational Sciences (NCATS), 2013).
Where “and” joins values, the source holds several entries; their conditions need not be identical. Identical values can stand only once. Out of some 420,000 compounds screened, about 50,000 (12%) were called active. The shares of active, inactive and inconclusive entries below differ from those in the screen. The call rests on the fitted dose curve; in most records, active means well fitted inhibition curve with a large enough effect; inconclusive means small, poorly fitted or top-dose-only effect; inactive means flat fitted curve, though single readings scatter. Where the call is inconclusive, the potency comes from a doubtful curve fit.

assay: qHTS for Inhibitors of human tyrosyl-DNA phosphodiesterase 1 (TDP1): qHTS in cells in presence of CPT; details: chicken DT40 Tdp1-/-;hTDP1 cells + 20 nM CPT, ATP luminescence, 48 h; activity change, negative = growth inhibition: at 46.2 µM (top of the series); further: nearly all actives have a fitted effect of over 55% in size
In short: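 Cell growth measured by CellTiter-Glo luminescence after a minimum 48 h, 37 C compound exposure with 20 nM CPT in Tdp1-knockout DT40 cells stably expressing hTDP1, seeded 400/well; qHTS titration format.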
On the % scale 0 is the no-effect control and ±100 the full control effect; potency means the concentration at half of the fitted maximal effect; tags describe the fitted curve by direction and shape.

Q: With `Cc1ccc(C(C)C)cc2c(C)ccc1-2` as the compound, how does the Potency read?
A: inconclusive: 25.9 µM [inhibitor, single point]

Q: Which “activity change, negative = growth inhibition” value does the source give for `CC(C)(C)n1nnnc1C(c1cccnc1)N1CCN(c2ccccc2F)CC1` (stereo not given) here?
A: inactive: -0.075%

Q: With `CC1CC1C(=O)Nc1nc2ccc(S(C)(=O)=O)cc2s1` (stereo not given) as the compound, how does the “activity change, negative = growth inhibition” value read?
A: inactive: -5.89%

Q: With `COc1ccc(CNC(=O)c2cccc(N3CCCS3(=O)=O)c2)cc1OC` as the compound, how does the Potency read?
A: active: 10.3 µM

Q: For `CCN(CC)S(=O)(=O)c1ccc(C(=O)NCc2ccc3[nH]c4c(c3c2)CCCC4)cc1`, which “activity change, negative = growth inhibition” value is on record?
A: inactive: -5%

Q: For `COc1cccc(N2C(C(C)=O)=NN(c3ccccc3)C2c2ccc(N3CCOCC3)cc2)c1` (stereo not given), which Potency is on record?
A: active: 18.4 µM

Q: For `CCCCCC#CCN1CCN(C23CC4CC(CC(C4)C2)C3)CC1`, which Potency is on record?
A: inconclusive: 29.1 µM [inhibitor, single point]

Q: With `CCn1c(SCC(=O)N/N=C/C=C\c2ccco2)nc2ccccc21` as the compound, how does the Potency read?
A: inconclusive: 20.6 µM [inhibitor, partial curve, poor fit]

Q: Which Potency does the source give for `Cc1cccn2c(=O)c3cc(C(=O)NC4CCCC4)c(=N)n(CCc4ccccc4)c3nc12` here?
A: active: 2.91 µM

Q: Which Potency does the source give for `Cn1nccc1C(=O)OCC(=O)Nc1cccc(Cl)c1` here?
A: inconclusive: 3.26 µM [inhibitor, partial curve, poor fit]

Q: For `COc1ccc(C(=O)c2ccc(OC)cc2O)c(O)c1`, which Potency is on record?
A: inconclusive: 20.6 µM [inhibitor, single point]

Q: For `COc1ccc(N2C(=O)Cc3ccccc3C2=O)cc1`, which Potency is on record?
A: inconclusive: 23.1 µM [inhibitor, single point]

Q: Which “activity change, negative = growth inhibition” value does the source give for `CC1CCN(CCCNC(=O)CCCNC(=O)Cn2cnc3sc4c(c3c2=O)CCCC4)CC1` here?
A: inactive: -1.4%

Q: For `O=C(CN1CCC(NC(=O)c2cccc(F)c2)CC1)Nc1ccc(Br)cc1`, which Potency is on record?
A: inconclusive: 23.1 µM [inhibitor, single point]

Q: With `O=C1NC[C@@H](CCCCN2C[C@H](Cc3ccccc3)N(CC3CCCCC3)C(=O)C2=O)N(Cc2ccccc2)C1=O` as the compound, how does the “activity change, negative = growth inhibition” value read?
A: inactive: 0.151%

Q: For `CCN1CCN(C(=O)CCc2nnc(CCc3c[nH]c4ccccc34)o2)[C@@H](C)C1=O`, which “activity change, negative = growth inhibition” value is on record?
A: inactive: -10.1%

Q: Which “activity change, negative = growth inhibition” value does the source give for `COC(=O)CSc1ccc(S(=O)(=O)N2CCCCCC2)cc1[N+](=O)[O-]` here?
A: inactive: -0.292%

Q: For `CN1CCN(Cc2cccc(Oc3ccccc3)c2)CC1`, which “activity change, negative = growth inhibition” value is on record?
A: inactive: -13.9%

Q: For `Clc1cccc(-c2nc3nc4ccccc4nc3n2Cc2ccccc2)c1`, which Potency is on record?
A: inconclusive: 29.1 µM [inhibitor, single point]

Q: For `CC(C)c1ccc(NC(=O)c2ccc(Cn3nc(N4CCN(c5ccccc5)CC4)ccc3=O)o2)cc1`, which Potency is on record?
A: inconclusive: 13 µM [inhibitor, partial curve]

Q: For `Cc1ccc2c(c1)C1CN(C)CCC1N2S(=O)(=O)c1cc(C(F)(F)F)ccc1Cl` (stereo not given), which Potency is on record?
A: inconclusive: 18.4 µM [inhibitor, single point]

Q: For `O=C(CCNC(=O)Cn1ccc2ccccc2c1=O)NCCCN1CCN(c2ccccc2F)CC1`, which “activity change, negative = growth inhibition” value is on record?
A: inactive: -24.3%

Q: With `C=CCSC1=C(C#N)C(c2ccccc2OCC)C(C#N)C(=O)N1` (stereo not given) as the compound, how does the Potency read?
A: inconclusive: 23.1 µM [inhibitor, single point]

Q: For `CC(C)c1ccc(C2CC(c3ccc(Br)cc3)=NN2C(N)=S)cc1` (stereo not given), which Potency is on record?
A: active: 14.6 µM

Q: For `Cc1cnc(C(=O)OCC(=O)N2C(C)CCCC2C)cn1` (stereo not given), which “activity change, negative = growth inhibition” value is on record?
A: inactive: 3.09%

Q: With `CCn1c(=NC(=O)c2ccc(S(=O)(=O)N3CCCC3)cc2)sc2cc(Br)ccc21` as the compound, how does the Potency read?
A: inconclusive: 4.61 µM [inhibitor, single point]

Q: With `COc1ccccc1/C=C(/C(=O)OCC(=O)Nc1cc(C)ccc1C)c1ccccc1` as the compound, how does the Potency read?
A: active: 25.9 µM

Q: With `COc1ccc(CC(=O)N(C)Cc2ccc(C(C)(C)C)cc2)cc1S(=O)(=O)N1CCOCC1` as the compound, how does the Potency read?
A: active: 20.6 µM

Q: Which Potency does the source give for `Cc1ccc(N2CCN(S(=O)(=O)c3ccc4c(c3)NC(=O)C(C)C(=O)N4)CC2C)cc1` (stereo not given) here?
A: inconclusive: 29.1 µM [inhibitor, single point]

Q: Which Potency does the source give for `Cc1ccc(C(C(=O)NC2CCCCC2)N(Cc2ccccc2)C(=O)Cc2c[nH]c3ccccc23)o1` (stereo not given) here?
A: inconclusive: 20.6 µM [inhibitor, single point]

Q: For `CCc1csc(CCNC(=O)C2CCC(=O)N(Cc3cccc(C(F)(F)F)c3)C2)n1` (stereo not given), which “activity change, negative = growth inhibition” value is on record?
A: inactive: -0.0069%

Q: Which Potency does the source give for `COc1ccc(/C=N/Nc2nc(-c3cccnc3)nc3ccccc23)c(OC)c1` here?
A: inconclusive: 16.4 µM [inhibitor, single point]

Q: Which Potency does the source give for `CCCOc1ccc(C(=O)NNC(=S)NC(=O)c2cccs2)cc1` here?
A: active: 23.1 µM

Q: Which Potency does the source give for `CCCC1(c2ccccc2)NC(=O)N(CC(=O)c2[nH]c(C)c(C(=O)OCC)c2C)C1=O` (stereo not given) here?
A: inconclusive: 29.1 µM [inhibitor, single point]

Q: For `C=CCc1ccc(OCc2ccc(C(=O)Nc3ccc(NC(C)=O)cc3)o2)c(OC)c1`, which Potency is on record?
A: inconclusive: 23.1 µM [inhibitor, single point] and inconclusive: 29.1 µM [inhibitor, single point]

Q: With `Cc1cc(C)c(/C=N/NC(=O)c2nnn(-c3nonc3N)c2CN2CCC(C)CC2)c(C)c1` as the compound, how does the Potency read?
A: inconclusive: 29.1 µM [inhibitor, single point]

Q: With `CC(=O)N/C(=N\c1nc(C)cc(C)n1)Nc1ccccc1Cl` as the compound, how does the “activity change, negative = growth inhibition” value read?
A: inactive: 16.2%

Q: With `O=C(O)c1ccccc1OCC1CCCO1` (stereo not given) as the compound, how does the “activity change, negative = growth inhibition” value read?
A: inactive: -19.8%

Q: With `Cn1c(-c2c(N)n(C3CCCC3)c3nc4ccccc4nc23)nc2ccccc21` as the compound, how does the Potency read?
A: inconclusive: 18.4 µM [inhibitor, single point]

Q: For `COc1cc(OC)c(C(=O)OCC(=O)NC2CCCCCCC2)cc1OC`, which Potency is on record?
A: inconclusive: 25.9 µM [inhibitor, single point]

Q: With `COCCN1C(=O)COc2ccccc2C1C(=O)Nc1c(C)cccc1C` (stereo not given) as the compound, how does the “activity change, negative = growth inhibition” value read?
A: inactive: 0.334%

Q: Which “activity change, negative = growth inhibition” value does the source give for `Cc1ccc(C)c(NC(=S)N2CCN(CCO)CC2)c1` here?
A: inactive: -10.9%

Q: With `Cc1cccc2sc(N(CCCN(C)C)C(=O)c3ccc(C(=O)c4ccccc4)cc3)nc12` as the compound, how does the Potency read?
A: inconclusive: 29.1 µM [inhibitor, single point]

Q: Which Potency does the source give for `CCc1oc2ccccc2c1C(=O)c1cc(I)c(O)c(I)c1` here?
A: inconclusive: 33.5 µM [inhibitor, single point]

Q: With `COc1ccc(-c2nc3cnc(OC)nc3n(-c3ccccc3)c2=O)cc1` as the compound, how does the “activity change, negative = growth inhibition” value read?
A: inactive: 24.9%

Q: For `COc1cccc(NC(=O)CN(C)C(=O)c2ccc(-c3ccccc3Cl)o2)c1`, which Potency is on record?
A: inconclusive: 18.4 µM [inhibitor, partial curve]

Q: For `C/C(=N\OCC(=O)Nc1c(C)cc(C)cc1C)c1ccc2c(c1)OCCO2`, which Potency is on record?
A: inconclusive: 29.1 µM [inhibitor, single point]

Q: With `Cc1cccc(Cn2cnc3c(oc4ccccc43)c2=O)c1` as the compound, how does the Potency read?
A: inconclusive: 16.4 µM [inhibitor, single point]

Q: With `Nc1nc(NCCc2ccccc2)c2[nH]cnc2n1` as the compound, how does the Potency read?
A: inconclusive: 22.4 µM [inhibitor, single point] and inconclusive: 5.01 µM [inhibitor, full curve]

Q: Which Potency does the source give for `COc1cc(NC(=O)C2C3C=CC(C3)C2C(=O)O)c(OC)cc1Cl` (stereo not given) here?
A: inconclusive: 29.1 µM [inhibitor, single point]

Q: With `CCOc1ncccc1C(=O)OC(C)C(=O)NC1CCCCC1` (stereo not given) as the compound, how does the “activity change, negative = growth inhibition” value read?
A: inactive: 9.53%

Q: With `O=C(Nc1ccccc1)OCCc1ccccc1` as the compound, how does the “activity change, negative = growth inhibition” value read?
A: inactive: -25.9%

Q: With `COc1ccc2c(c1)C(=NNc1ccc(C(=O)O)cc1)c1cc(OC)ccc1-2` as the compound, how does the Potency read?
A: inconclusive: 29.1 µM [inhibitor, single point]

Q: Which Potency does the source give for `CCN(CC)CCCNc1nc(-n2nc(C)cc2C)nc2sc3c(c12)CC(C)(C)OC3` here?
A: inconclusive: 29.1 µM [inhibitor, single point]

Q: For `Cc1ccc(NC(=O)C=NOCC(=O)Nc2cc(C)cc(C)c2)cc1`, which Potency is on record?
A: inconclusive: 29.1 µM [inhibitor, single point]

Q: For `COc1ccc2c(c1)c(=O)oc1cc(OCC(=O)N3CCC(C)CC3)ccc12`, which Potency is on record?
A: inconclusive: 29.1 µM [inhibitor, single point]

Q: Which Potency does the source give for `COc1cccc(NC(=O)Nc2cc(Cl)ccc2C)c1` here?
A: inconclusive: 29.1 µM [inhibitor, single point]

Q: For `CCCCCCCCCCOC(=O)Cn1c(COc2ccc(C)cc2)[n+](C)c2ccccc21`, which Potency is on record?
A: inconclusive: 6.51 µM [inhibitor, full curve, poor fit]

Q: With `O=C(C1CC(=O)N(c2ccc3c(c2)OCCO3)C1)N1CCN(c2ccccc2O)CC1` (stereo not given) as the compound, how does the Potency read?
A: active: 20.6 µM

Q: Which Potency does the source give for `c1ccc(CCNc2nc(-c3ccncc3)cs2)cc1` here?
A: inconclusive: 8.2 µM [inhibitor, partial curve, poor fit]

Q: For `CCc1cccc(OCC2Cn3c(nc4c3c(=O)n(C)c(=O)n4C)O2)c1` (stereo not given), which Potency is on record?
A: inconclusive: 25.9 µM [inhibitor, single point]

Q: Which Potency does the source give for `N#Cc1c(N)n(-c2ccc(O)cc2)c2nc3ccccc3nc12` here?
A: inconclusive: 10.3 µM [inhibitor, partial curve]

Q: For `CCC(=O)N1CCc2cc(CNS(=O)(=O)c3ccc(Br)s3)ccc21`, which Potency is on record?
A: inconclusive: 29.1 µM [inhibitor, single point]

Q: With `Cc1cc(C)cc(NC(=O)N2CCC(CN3CCc4ccccc4C3)CC2)c1` as the compound, how does the Potency read?
A: inconclusive: 23.1 µM [inhibitor, single point]

Q: For `CCn1c(=O)c2ccccc2n2c(SCC(=O)N3CCc4ccccc4C3)nnc12`, which activity change, negative = growth inhibition is on record?
A: inconclusive: -30.3% [inhibitor]

Q: With `O=C1c2ccccc2-c2nc3ncnn3c(-c3ccccc3Cl)c21` as the compound, how does the Potency read?
A: inconclusive: 23.1 µM [inhibitor, single point]

Q: With `CN(C)c1ccc(/C=C\C=C/c2ccnc3ccccc23)cc1` as the compound, how does the Potency read?
A: active: 0.0794 µM

Q: Which Potency does the source give for `Cc1ccc(/C=C/c2ccc3cccc(O)c3n2)s1` here?
A: inconclusive: 23.1 µM [inhibitor, single point]

Q: With `C=CCN(c1ccccc1OC)S(=O)(=O)c1cccc(C(=O)NCc2cccs2)c1` as the compound, how does the Potency read?
A: active: 14.6 µM

Q: Which “activity change, negative = growth inhibition” value does the source give for `CC(=O)Nc1ccc(S(=O)(=O)NCC(=O)OCC(=O)N2CCN(c3ccccc3)CC2)cc1` here?
A: inactive: -13.2%
